PubChem BioAssay
The inconclusive results got no clear call from the source; some entries with a clear call stand among them for comparison. Calls of active or inactive are those of the source.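 The calls were made as follows: active = viability at or below 27.92% in each of two runs, the all-compound median minus 4 SD; inconclusive = no clear call, values can overlap the other calls; inactive = the rest.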

experiment: viability of PTEN-null HCT116 cells – cell-based, HCT116 clonal line, CellTiter-Glo, pilot screen (AID 824); details: HCT116 PTEN-deleted viability, 60 h, at 10 µM, stronger effect = lower value;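 also: 0% = 20 µM Hyamine control and 100% = vehicle cell control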

| SMILES | viability |
| --- | --- |
| CCOc1ccc(NC(=O)CSc2nnc(-c3ccccc3)n2N)cc1 | inconclusive: 92.2% |
| CCN1CCN(C(=O)C2c3cc(OC)c(OC)cc3C(=O)N(C)C2c2ccc(SC)cc2)CC1 (stereo unspecified) | inconclusive: 93.8% |
| CSC(=NCCCN1CCOCC1)NS(=O)(=O)c1cccs1 | inconclusive: 99.7% |
| Clc1ccc(SCCCCn2ccnc2)cc1 | inactive: 65.7% |
| Cc1cc(NC(=O)Cn2c(=O)n(Cc3ccccc3)c(=O)c3ccccc32)no1 | inconclusive: 25.8% |
| C=CCOC(=O)COc1ccc2c(C)c(C)c(=O)oc2c1 | inactive: 95.9% |
| CCC(=O)N1CCc2cc(Br)cc(S(=O)(=O)CCC(=O)NCc3ccco3)c21 | inconclusive: 100% |
| Cc1cc(C)c(S(=O)(=O)NCC2CCC(C(=O)NCCCN3CCOCC3)CC2)c(C)c1 (stereo unspecified) | inconclusive: 94.7% |
| O=C(NCC1COc2ccccc2O1)c1ccc(NC(=O)C2CCCO2)cc1 (stereo unspecified) | inconclusive: 104% |
| CNC(=O)c1ccc(-c2sc3nc(N4CCOCC4)c4c(c3c2N)CCCC4)o1 | inconclusive: 40.2% |
| CCOC(=O)Nc1cc(C(=O)OCC)c(C)nc1C | inconclusive: 99% |
| COc1ccccc1C(=O)Nc1nnn(C)n1 | inconclusive: 93.8% |
| COCCCNc1ncnc2nc[nH]c12 | inactive: 104% |
| Cc1ccccc1-c1ccc(Nc2ccc(N3CCOCC3)cc2)nn1 | inconclusive: 75.1% |
| O=C(c1ccccn1)N1CCN(c2ccc(C(F)(F)F)cn2)CC1 | inconclusive: 104% |
| COCCN(CCOC)C(=O)c1cc2sc3ccccc3c2s1 | inactive: 90.4% |
